Data: PubChem BioAssay AID1240 (Sanford-Burnham Center for Chemical Genomics, 2008)
The whole screen tested about 50,000 compounds, of which about 800 (1.6%) showed an effect of 50% or more. The list shows a part of the results. Peptide text beside a SMILES is read from it. * marks the point of attachment. Tos = Cc1ccc(S(=O)(=O)*)cc1

target: Bcl-2-like protein 10 (Homo sapiens) (UniProt Q9HD36); experiment: Phenotype converters, Bcl-B/TR3 peptide binding displacement, primary biochemical FP (AID 1240); conditions: GST-Bcl-B / FITC-TR3 peptide fluorescence polarization; stronger effect = higher value; compound at 3.75 mg/L;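 also: 0% = Bcl-B with tracer peptide and DMSO and 100% = tracer peptide lacking Bcl-B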
Sequence of UniProt Q9HD36 (Q9HD36 whole entry, looked up): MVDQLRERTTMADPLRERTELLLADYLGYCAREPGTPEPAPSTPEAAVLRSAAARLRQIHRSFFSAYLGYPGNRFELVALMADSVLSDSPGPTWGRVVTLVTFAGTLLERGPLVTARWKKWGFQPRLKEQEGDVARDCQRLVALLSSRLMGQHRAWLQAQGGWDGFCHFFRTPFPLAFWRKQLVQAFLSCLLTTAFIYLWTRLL

SMILES | displacement
C/C(=N\NC(=O)c1ccco1)c1ccc(Br)cc1 | 3.8%
O=C(Nc1ccc(Cl)cc1)Nc1nnc(Cc2ccc(Cl)cc2)s1 | 11.2%
COC(=O)c1sccc1NC(=O)c1ccc(C)c([N+](=O)[O-])c1 | 3.3%
CCCCNCCCCCCOc1ccccc1OC | 4.5%
COc1cc(/C=C2/SC(=S)NC2=O)ccc1OS(=O)(=O)c1ccccc1 | -98.1%
CCCC(=O)NC(c1ccccc1Cl)c1c(O)ccc2ccccc12 (centres undefined) | 3.9%
COc1ccc(C2NC(=O)NC(C)=C2C(=O)Nc2ccccc2C)cc1OC (centres undefined) | 5.2%
Cc1cccc(N2C(=O)c3ccc(C(=O)O)cc3C2=O)n1 | 9.8%
CN(CCO)S(=O)(=O)c1ccc(N)cc1 | -5.8%
O=C1NC(=S)NC(=O)C1=Cc1ccc(N2CCCCC2)c([N+](=O)[O-])c1 | 20.3%
Cc1ccc(C23CC4CC(CC(C(=O)Nc5ccc(F)cc5F)(C4)C2)C3)cc1 | -3.1%
C#CCOc1ccc(/C=C2\C(=O)NC(=O)N(c3ccc(Cl)cc3)C2=O)cc1OCC | -5.9%
Oc1ccc2ccccc2c1CN=Cc1cccnc1 | 31.9%
O=C(O)c1cccc(NC(=O)c2cccc(Br)c2)c1 | -3.5%
COC(=O)c1cccc(NC(=O)COc2cccc(C)c2C)c1 | -3.2%
CN1CCO/C1=C(C#N)\C=C1/C(=O)N(c2c(Cl)cccc2Cl)c2ccccc21 | 67.6%
Cc1cc(C(=O)N=Nc2c(O)n(Cc3ccccc3)c3ccc(Br)cc23)n[nH]1 | 0.1%
CC(=O)CCc1oc2ccc([N+](=O)[O-])cc2c1-c1ccc(C)o1 | 3.5%
CCOC(=O)CNC(c1ccccc1)c1cc(Br)ccc1NC(=O)CN1CCOCC1 (centres undefined) | 11.2%
Cc1ccc(C(=O)CC(=O)c2ccccc2)cc1 | 3.3%
Cc1cc(/C=N/NC(N)=S)c(C)n1-c1ccc(Cl)cc1 | -15.7%
CCOC(=O)c1c(C)oc2ccc(OCC(N)=O)cc12 | 10.3%

SMILES | displacement
C=CCOc1c(Cl)cc(/C=C2/C(=O)NN(c3ccc(Br)cc3)C2=O)cc1OC | 5.1%
COc1cc(NC(=O)c2cccs2)ccc1NC(=O)c1cc2ccccc2o1 | 3.2%
CC1CC(=O)NN=C1c1ccc(N2CCOCC2)c([N+](=O)[O-])c1 (centres undefined) | -1.7%
FC(F)(F)c1ccc2nnc(-c3ccc(Cl)cc3)n2c1 | -6.3%
CCNC(=O)CNC(=O)CNS(=O)(=O)c1ccc(C)cc1 (Tos-Gly-Gly-NHEt) | 3.5%
CCN(CC)CCN1C(=O)C(O)=C(C(=O)/C=C/c2ccccc2)C1c1ccc(OC)c(OC)c1 (centres undefined) | -8.4%
CCOC(=O)C1=C(C)N=c2s/c(=C\c3ccc(Br)o3)c(=O)n2C1c1ccc(F)cc1 (centres undefined) | 11.2%
C=CC(=O)NC12CC3CC(CC(C3)C1)C2 | 5.3%
CCCCNC(=O)C(=O)NCCCO | 7.5%
CC(=O)c1ccc(NC(=O)c2ccc(-c3ccc([N+](=O)[O-])cc3)o2)cc1 | 7.5%
COc1ccc(/C(C)=N/NC(=O)CSc2nc(C)cc(C)n2)cc1OC | 11.5%
CCCN(CCC)C(=O)c1ccccc1[N+](=O)[O-] | 14.3%
Cc1ccc(-c2nc3ncccc3o2)cc1NC(=O)C(C)C | -2.9%
CC1=NN(c2ccc(S(N)(=O)=O)cc2)C(=O)/C1=C\c1ccc(-c2cc([N+](=O)[O-])ccc2Cl)o1 | -2.3%
Nc1nncn1C(=O)COc1ccccc1 | 10.8%
COc1ccc(Br)cc1/C=C1/SC(=S)N(c2cccc(C(F)(F)F)c2)C1=O | 13.7%
O=C(O)c1cccc(S(=O)(=O)N(CCO)CCO)c1 | -5.2%
O=C(c1cc(Cl)ccc1[N+](=O)[O-])N1CCN(c2cccc(Cl)c2)CC1 | -9.3%
C/C(=N\NC(=O)c1cc(-c2ccccc2)n[nH]1)c1cccc([N+](=O)[O-])c1 | -6%
Cc1ccc(NC(=O)C2C3CC/C=C\CCC32)cc1 (centres undefined) | -1.8%
Cc1ccc(C(C)C)c(OCC(=O)Nc2cc(C(F)(F)F)ccc2Cl)c1 | 5.7%
COC(=O)c1ccc(-c2ccc(/C=C3/SC(=S)N(C)C3=O)o2)cc1 | 8.3%

SMILES | displacement
CCOC(=O)/C(C#N)=C/Nc1ccc2ccccc2c1 | 15.1%
CCOC(=O)C1=C(C)N=c2s/c(=C\c3cc(Br)c(O)c(OC)c3)c(=O)n2C1c1ccc(OC)c(OC)c1 (centres undefined) | -85.1%
Cc1ccc(S(=O)(=O)Nc2ccccc2C=Nc2c(C)n(C)n(-c3ccccc3)c2=O)cc1 | -6%
CCOC(=O)c1c(NC(=O)CNc2ccc(C)cc2)sc2c1CC(C)(C)OC2 | -10.6%
CCOc1ccc(NC(=O)C(CC(=O)O)Cc2ccccc2)cc1 (centres undefined) | 7.9%
N/C(=N\OC(=O)COc1ccc(Br)cc1)c1ccncc1 | 12.2%
CCSc1nnc(NC(=O)COC(=O)C(CCSC)NC(C)=O)s1 (centres undefined) | -5.7%
CN(CC(O)c1cccc(O)c1)C(=O)c1ccccc1 (centres undefined) | -7.7%
Cc1nc(NC(=O)c2ccc(Cl)cc2[N+](=O)[O-])sc1C | -10.4%
COc1ccc(/C(C)=N\OCc2nc3c4c5c(sc4ncn3n2)CCCC5)cc1OC | 1.2%
CCOC(=O)c1cc(CC)sc1NC(=O)c1cccc(OCC)c1 | -6.4%
COc1ccc(C(=O)N/C(=C\c2ccc(-c3cccc([N+](=O)[O-])c3)o2)C(=O)NCCCN2CCOCC2)cc1 | 4.3%
COc1ccc(C)cc1NC(=O)C(C)Oc1ccc(Cl)cc1Cl (centres undefined) | -2.7%
O=C(Nc1ccc2nn(-c3ccccc3)nc2c1)c1ccc(Cl)c([N+](=O)[O-])c1 | 9.6%
CC(=O)NC1=NC(=O)/C(=C\c2ccc(-c3ccc(C(=O)O)cc3)o2)S1 | -27%
Cc1ccc(/C=C/C(=O)c2c(C)cc(C)[nH]c2=O)cc1 | 6.8%
CC(C)Oc1ccc(C(=O)NCc2cccnc2)cc1 | -7.2%
CC(=O)/C=C1\NC(C)(C)Cc2ccccc21 | -1.7%
N/C(=N\OC(=O)c1ccc(I)cc1)c1ccccc1 | -9.3%
O=C(COc1ccc(Cl)cc1)Nc1ccc(I)cc1Cl | 4%
Cc1cccc(NC(=O)C(=O)NCC(C)O)c1C (centres undefined) | -12.3%
Cc1ccc(N(CC(O)CN2CCCCC2)S(=O)(=O)c2ccccc2[N+](=O)[O-])cc1 (centres undefined) | 5.6%

SMILES | displacement
O=C(Nc1ccc2ccccc2c1)c1cccc(Cl)c1Cl | 13.4%
O=C(COc1ccc2ccccc2c1)N1CCN(S(=O)(=O)c2ccccc2)CC1 | -0.2%
Cc1cc(=O)oc2cc(OCc3ccc(Br)cc3)ccc12 | 3.1%
O=C1CC(N2CCC(O)CC2)C(=O)N1c1ccc(I)cc1 (centres undefined) | -4.9%
COC(=O)c1c(NC(=O)c2cnccn2)sc2c1CCCCC2 | 5%
CN1C(=O)/C(=C/c2ccc(OC(=O)c3ccc(F)cc3)cc2)SC1=S | -2.1%
Clc1cccc(OCCCCCn2ccnc2)c1 | 7.9%
CCCCN(CCCC)C(=O)c1ccccc1Cl | -2.9%
CN(C)c1cccc(C(=O)Nc2cc(Cl)cc(Cl)c2)c1 | -5.3%
COc1ccc(CCN(C(=O)/C=C/C(=O)O)C2CC(=O)N(c3ccccc3)C2=O)cc1 (centres undefined) | -4.9%
CC(=O)NC1=C(N(C)C)C(=O)c2ccccc2C1=O | -4%
CC(=O)Nc1ccc(S(=O)(=O)Nc2ccc(C(=O)Nc3nccs3)cc2)cc1 | 7.5%
CCOC(=O)C1=C(C)N=c2s/c(=C\c3sccc3C)c(=O)n2C1c1cc(OC)ccc1OC (centres undefined) | 10%
COc1ccc(OC)c(-n2c(O)cnc2Nc2nc(C)cc(C)n2)c1 | 5.7%
CCC12c3ccccc3C(c3ccccc31)C1C(=O)N(c3ccc(C)c(Cl)c3)C(=O)C12 (centres undefined) | -11.7%
CCOc1cc(C2Nc3ccccc3C(=O)N2c2ccc(Cl)cc2)ccc1O (centres undefined) | 4.5%
O=C1OC(c2ccccc2F)=N/C1=C\c1cccc(I)c1 | -0.4%
NS(=O)(=O)c1ccc(NC(=S)Nc2ccccc2)cc1 | 4.1%
COc1ccc(NC(=O)C2(C)CC3C=CC2C3)cc1 (centres undefined) | 4.7%
COc1ccc(N(CC(=O)Nc2ccc(C)c(C)c2)S(C)(=O)=O)cc1Cl | -4%
COc1ccc(/C=C/C(=O)NCc2ccc(Cl)cc2)cc1OC | -14.2%
C/C(=N\NC(=O)c1ccccn1)c1ccc([N+](=O)[O-])cc1 | 5.8%

SMILES | displacement
Oc1c(Cl)cc(Cl)cc1C=Nc1cccc(C(F)(F)F)c1 | 2.4%
O=C(Nc1ccc(C(=O)N2CCOCC2)cc1)Nc1cccc2ccccc12 | -7.6%
O=C(O)CNS(=O)(=O)c1ccc2c(c1)C(=O)c1cc(S(=O)(=O)NCC(=O)O)ccc1-2 | -0.6%
Cc1cccc(NC(=O)CSc2nnc(-c3ccccc3)c(-c3ccccc3)n2)c1C | -4.3%
CC(=O)c1c(OC(=O)c2ccco2)ccc2c(C)cc(=O)oc12 | 15.5%
CCn1c2c(c3cc([N+](=O)[O-])ccc31)CCCC2=O | 12.9%
C/C(=N\NC(=O)c1cc(C2CC2)[nH]n1)c1ccc(C)cc1 | -18.4%
Clc1cccc(/C=N\N2CCN(c3ccccc3)CC2)c1Cl | 1.1%
COc1ccc(NC(=O)CN(c2cccc([N+](=O)[O-])c2)S(=O)(=O)c2ccccc2)cc1OC | 14.2%
Cc1ccc(/C(O)=C2\C(=O)C(=O)N(CCCC(=O)O)C2c2ccc(F)cc2)cc1 (centres undefined) | 0.2%
COc1cc(C)c(Nc2ccccc2)c(C)c1 | 4.7%
CCCC(=O)C1=C(C(=O)OC)C(C)(C)C/C1=N/OCC | -13%
Cc1cc(C)c(S(=O)(=O)Nc2cc([N+](=O)[O-])ccc2C)c(C)c1 | 12.8%
O=C(NCCN1CCOCC1)c1cc2nc(-c3ccc(Cl)c(Cl)c3)cc(C(F)(F)F)n2n1 | 9.2%
O=C(Nc1ccccc1)O/N=C/c1c(F)cccc1Cl | 4.3%
COC(=O)C1=C(C)NC(=O)NC1c1ccc(-c2ccccc2)cc1 (centres undefined) | 4.7%
CC(=O)Nc1ccccc1NS(=O)(=O)c1cccc([N+](=O)[O-])c1 | 1.1%
O=S(=O)(c1cccc2c(S(=O)(=O)N3CCOCC3)cccc12)N1CCOCC1 | 6.7%
O=C(CSCC(=O)Nc1ccc2ccccc2c1)Nc1ccccc1 | -15.4%
c1ccc(NC2=Nc3ccccc3CCC2)cc1 | -1.5%
Cc1cc(=O)oc2cc(OCC(=O)Nc3sc4c(c3C(N)=O)CCC4)ccc12 | 18%
